Values joined by “and” are separate entries in the source; they are usually repeats but may differ in a detail not shown here. Identical values can stand only once.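 Values below derive from 48-hour exposures of cells grown in 96-well plates, with endpoints linearly interpolated between the two concentrations bracketing the appropriate inhibition level. GI50 is the concentration that inhibits growth by half. TGI: concentration producing complete growth inhibition.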

The subject of this assay is NCI-H322M lung. Nature of the assay: NCI tumour cell line growth inhibition, 48 h.
Take `CC1(C)CC(=O)C2=C(C1)OC1(CC2c2ccc(Cl)cc2)CC(c2ccc(Cl)cc2)C2=C(CC(C)(C)CC2=O)O1` (configuration not stated): the TGI turned out to be 32.2 µM. Still for that read-out and setting: then `CC(C)NC(=O)OCc1c(COC(=O)NC(C)C)c(-c2cc[n+](COC(=O)C3CCCCC3)cc2)n2c1CCC2`, with over 100 µM. Consider `C=C(C)[C@@H]1CC[C@]2(CO)CC[C@]3(C)[C@H](CC[C@@H]4[C@@]5(C)CC[C@H](NCO)C(C)(C)[C@@H]5CC[C@]43C)[C@@H]12`, for which the GI50 was 0.904 µM and the TGI was determined as 1.66 µM. The molecule `CCn1c2ccccc2c2cc(Nc3cc(C)[nH]c(=O)n3)ccc21` came in with a TGI of over 100 µM. For `CN1CCN(c2ccc3nc(-c4ccc(OCCCCN5CCN(CCCCN6C(=O)c7cccc8cccc(c78)C6=O)CC5)cc4)[nH]c3c2)CC1`, the GI50 is over 100 µM and the TGI is over 100 µM.

In the case of `CC(=O)c1c2c(cc3c1CC1(C3)Cc3cc4c(c(C(=O)O)c3C1)CCC4)CCC2` (configuration not stated), the TGI was over 100 µM.

The molecule `O=[N+]([O-])/C(C(Cl)=C(Cl)Cl)=C(/Nc1ccccc1)Sc1ccccc1` had a TGI of 92 µM. On the same count and under the same terms, then `[Cl-].[Fe+2].c1ccc(-c2ccnc3c2ccc2c(-c4ccccc4)ccnc23)cc1.c1ccc(-c2ccnc3c2ccc2c(-c4ccccc4)ccnc23)cc1.c1ccc(-c2ccnc3c2ccc2c(-c4ccccc4)ccnc23)cc1`, with over 100 µM.

As to `CCOC(=O)/C=C/[C@@H](CC)O[Si](C(C)C)(C(C)C)C(C)C`, the TGI is over 100 µM. On the same count and under the same terms, then `CCOC(=O)C(C(=O)COC(C)(C)C)[C@@H]1C=C[C@H](OC(C)=O)C1` (some centres not stated), with over 100 µM. For the molecule `COc1ccc(-c2nc(C(=O)c3ccccc3)n(CC(=O)c3ccc(Cl)cc3)c2-c2ccc(OC)cc2)cc1`, the GI50 is over 100 µM and the TGI is over 100 µM.

For `CCCN1CCC=C(c2ccc(Nc3nc(Nc4ccccc4C(N)=O)c4cc[nH]c4n3)c(C)c2)C1`, the GI50 was 1.72 µM and the TGI is over 25 µM.

`CN1CCN([C@H]2C[C@H]3[C@@H]4CC=C5C[C@@H](O)CC[C@]5(C)[C@H]4CC[C@]3(C)[C@H]2O)CC1` returned a TGI of over 83.3 µM. On the same count and under the same terms, the same measure for `CC1C2(C)OCC(C#N)(C(=N)O2)C1(C#N)C#N` (configuration not stated): over 100 µM. The same measure, in the same setting: then `O=C(O)CCc1nc(-c2ccccc2-n2cccc2)no1`, with over 100 µM. `C/C(=N/O)c1ccc(Nc2cc(-n3ccnc3)c3ccccc3n2)cc1`: the GI50 was 21.8 µM and the TGI was over 100 µM. The molecule `CCNC(=S)N/N=C(\C)c1cccc(C)n1` displayed a TGI of over 100 µM. With `Cc1c2ccncc2c(C)c2c1[nH]c1ccc(Cl)cc12`, the GI50 was 1.89 µM and 3.09 µM; the TGI was 6.26 µM and 26 µM. In the case of `COc1cc(/C=N/NC(=O)c2ccccc2Nc2cccc(C(F)(F)F)c2)cc(OC)c1OC`, the GI50 was 4.49 µM and the TGI turned out to be 29.1 µM. Molecule `Cc1ccccc1NC(=O)Cc1csc(N=Nc2c(O)[nH]c3ccccc23)n1` had a TGI of 81.7 µM.

The molecule `O=C(N/N=C\c1ccc([N+](=O)[O-])s1)c1ccncc1` had a TGI of over 85.6 µM. Still for that read-out and setting: then `CCCCCCCCCCCCCCCCOCC(O)CO` (configuration not stated), with 38.3 µM. `O=c1c2ccccc2nc(-c2ccccc2)n1NC(=S)Nc1cccc(Cl)c1` returned a TGI of over 100 µM.

Regarding `COC(=O)c1ccc(NCC2=C(Br)C(=O)C=CC2=O)cc1Cl`, the TGI was over 100 µM. In the case of `NN/C(=N\S(=O)(=O)c1ccc(S(=O)(=O)c2ccccc2)s1)Nc1ccc(Cl)cc1`, the TGI is over 100 µM. The same measure, in the same setting: the same measure for `Cc1ccc(S(=NS(=O)(=O)c2ccc(C)cc2)c2ccc(C)cc2)cc1`: over 100 µM. In turn, `CN(C)CCNC(=O)c1c(O)ccc2c1c1c(n2CCc2ccccc2)C(=O)c2ccccc2C1=O` gave a TGI of 17.4 µM.

In turn, `O=c1[nH]c2ccc(CC(=S)N3CCCCC3)cc2s1` came in with a TGI of over 100 µM.

Consider `O=P(O)(O)CN1CCNCCN(CP(=O)(O)O)CC1`, for which the TGI was over 100 µM. Turning to `COC(=O)C(=O)C(C(=O)C(=O)Nc1cc(Cl)c(Cl)cc1Cl)c1nc2ccc([N+](=O)[O-])cc2[nH]c1=O` (configuration not stated), the TGI was over 100 µM.

`CCOc1cc2c(cc1O)C(N)C[C@@H]1[C@@H]2CC[C@]2(C)[C@@H](O)CC[C@@H]12` (some centres not stated) had a TGI of over 100 µM. `Cn1cc(-c2nc(N[C@@H]3CCCC[C@@H]3N)c(F)c3c2C(=O)NC3)cn1`: the GI50 is 19.6 µM and 27.8 µM; the TGI is over 100 µM. `O=C(/C=C/c1cccc2ccccc12)Nc1ncc(Cc2ccccc2)s1`: the GI50 was 1.35 µM and the TGI was over 27.1 µM.

For the molecule `COc1cc(C(C#N)NNc2nc(C)cc(=O)[nH]2)cc(OC)c1OC` (configuration not stated), the TGI was over 100 µM. On the same count and under the same terms, then `COc1ccc2c([nH]c3c(O)c(-c4c(C)cc5c([nH]c6c(CC=C(C)C)c(OC)ccc65)c4O)c(C)cc32)c1CC=C(C)C`, with over 100 µM. The same measure, in the same setting: then `COc1ccc2c(c1)c1c3n2CCNN=C3CCC1`, with over 100 µM; and `C=C1CC2[C@H](C)C(=O)CCC2(C)C2=C1C1CCC(C(C)CCC(=C)C(C)C(=O)O)C1(C)CC2=O` (some centres not stated), with over 100 µM; and `NS(=O)(=O)c1ccc(N=Nc2ccc(O)c(C(=O)O)c2)cc1`, with over 100 µM.

Molecule `CN(C)CN(C)c1nc(N(C)C)nc(N(C)CN(C)C)n1` yielded a TGI of over 100 µM.

In turn, `COc1ccccc1NC(=S)N/N=C/c1cccc(C)n1` displayed a TGI of over 100 µM.

`CC(=O)OC(=O)O/C=C\CCl` had a TGI of over 100 µM. Still for that read-out and setting: the same measure for `C=CCNC(=S)/N=C/C(C(=O)Nc1ccccc1C)=C(\C)O`: over 100 µM; for `C#CCOCn1cnc2ncnc(N)c21`: over 100 µM. The molecule `Cc1ccc(S(=O)(=O)Nn2c(O)c(C#N)c(-c3ccc([N+](=O)[O-])cc3)c(C#N)c2=O)cc1` displayed a TGI of over 100 µM. Still for that read-out and setting: then `COC1CC(OC2C(C)OC(OC3C(C)OC(OC4C(C)OC(O[C@H]5CC[C@@]6(C)C(=CC[C@]7(O)[C@@H]6C[C@@H](O)[C@@]6(C)[C@]7(O)CC[C@@]6(O)C(C)=O)C5)CC4OC)CC3OC)CC2OC)OC(C)C1O` (some centres not stated), with over 12.5 µM; and `CCOC(=O)C(C)N1C(=O)c2ccccc2S1(=O)=O` (configuration not stated), with over 100 µM.

For `CC(C)[Si](OCC1CC(C#N)OC(C)(C)O1)(C(C)C)C(C)C` (configuration not stated), the TGI worked out at 59.5 µM. Same read-out and setting: the same measure for `Cc1cc2ccc(N)nc2[nH]c1=O`: over 100 µM; for `CN/N=C(\C(=O)Nc1ccc(C)c(C)c1)C(C(=O)OC)c1nc2ccc([N+](=O)[O-])cc2[nH]c1=O` (configuration not stated): over 100 µM; for `COc1ccc(C)cc1C1CCC(=O)O1` (configuration not stated): over 100 µM.

`O=CCCCC(Sc1ccccc1)Sc1ccccc1` came in with a TGI of over 100 µM. Same read-out and setting: then `O=C(/C=C/C1C(=O)NC(=O)NC1=O)CC(=O)C(=O)Nc1cc(Cl)c(Cl)cc1Cl`, with over 100 µM; and `CCOC(C)OC1CC(n2cc(C)c(=O)[nH]c2=O)OC1CO` (configuration not stated), with over 100 µM. As to `Cc1cc(Nc2nc(-c3ccncc3)nc3ccccc23)n[nH]1`, the GI50 is 33.4 µM and the TGI is over 100 µM. The molecule `CSCCCNC(=O)[C@H](CSC)NC(=O)c1csc(CCNC(=O)[C@@H](NSc2ccccc2[N+](=O)[O-])C(C)O)n1` (some centres not stated) returned a TGI of over 100 µM.

For the molecule `COc1cccc2c1cc1c3c(cc4c(c32)OCO4)C(=O)N1`, the GI50 was 2.29 µM and the TGI came to 6.26 µM. The matching figures for `COc1ccc2c(c1)/C(=N/OC(C)=O)c1c-2cnc2ccccc12`: 29.4 µM and 88.3 µM.

Take `Cn1cc(C2=C(c3cn(CCCCC(=N)N)c4ccccc34)C(=O)NC2=O)c2ccccc21`: the GI50 is over 25 µM and the TGI was over 25 µM. The molecule `CC[C@@]1(O)C(=O)OCc2c1cc1n(c2=O)Cc2c-1nc1ccccc1c2/C=N\NC(=O)C(N)Cc1c[nH]c2ccccc12` (some centres not stated) registered a TGI of over 82.2 µM.
